# Results from the supplement of paper PMC8728848.
# The list shows a part of the results.
# Key:
# Experiment in all cases: glycan array binding signal (z-score within array); higher = stronger binding
# Conditions in all cases: glycan notation: IUPAC condensed, linker removed; mutation: E227A
# [1] = biological target: Gal(b1-4)GlcNAc(b1-3)Gal(b1-4)GlcNAc(b1-2)Man(a1-3)[Gal(b1-4)GlcNAc(b1-3)Gal(b1-4)GlcNAc(b1-2)Man(a1-6)]Man(b1-4)GlcNAc(b1-4)[Fuc(a1-6)]GlcNAc
# Outline: (§1)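 Glycan array binding is given as a within-array Z-score, which can be read as non-binding when negative. The arrays, 3228 of them, came from the Consortium for Functional Glycomics database and were retained only where the protein sequence was available. Z-scores were averaged across arrays of the same protein sequence at different concentrations or buffers and across linkers.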
# [2] = biological target: Gal(b1-4)GlcNAc(b1-3)Gal(b1-4)GlcNAc(b1-2)[Gal(b1-4)GlcNAc(b1-3)Gal(b1-4)GlcNAc(b1-6)]Man(a1-6)[Gal(b1-4)GlcNAc(b1-3)Gal(b1-4)GlcNAc(b1-2)Man(a1-3)]Man(b1-4)GlcNAc(b1-4)GlcNAc
# Outline: as §1
# [3] = biological target: Gal(b1-4)GlcNAc(b1-3)Gal(b1-4)GlcNAc(b1-2)[Gal(b1-4)GlcNAc(b1-3)Gal(b1-4)GlcNAc(b1-6)]Man(a1-6)[Gal(b1-4)GlcNAc(b1-3)Gal(b1-4)GlcNAc(b1-2)Man(a1-3)]Man(b1-4)GlcNAc(b1-4)[Fuc(a1-6)]GlcNAc
# Outline: as §1
# [4] = biological target: Gal(b1-4)GlcNAc(b1-3)Gal(b1-4)GlcNAc(b1-3)Gal(b1-4)GlcNAc
# Outline: as §1
# [5] = biological target: Gal(b1-4)GlcNAc(b1-3)Gal(b1-4)GlcNAc(b1-3)Gal(b1-4)GlcNAc(b1-2)Man(a1-3)[Gal(b1-4)GlcNAc(b1-3)Gal(b1-4)GlcNAc(b1-3)Gal(b1-4)GlcNAc(b1-2)Man(a1-6)]Man(b1-4)GlcNAc(b1-4)GlcNAc
# Outline: as §1
# [6] = biological target: Gal(b1-4)GlcNAc(b1-3)Gal(b1-4)GlcNAc(b1-3)Gal(b1-4)GlcNAc(b1-2)Man(a1-3)[Gal(b1-4)GlcNAc(b1-3)Gal(b1-4)GlcNAc(b1-3)Gal(b1-4)GlcNAc(b1-2)Man(a1-6)]Man(b1-4)GlcNAc(b1-4)[Fuc(a1-6)]GlcNAc
# Outline: as §1
# [7] = biological target: Gal(b1-4)GlcNAc(b1-3)Gal(b1-4)GlcNAc(b1-3)Gal(b1-4)GlcNAc(b1-2)[Gal(b1-4)GlcNAc(b1-3)Gal(b1-4)GlcNAc(b1-3)Gal(b1-4)GlcNAc(b1-6)]Man(a1-6)[Gal(b1-4)GlcNAc(b1-3)Gal(b1-4)GlcNAc(b1-3)Gal(b1-4)GlcNAc(b1-2)Man(a1-3)]Man(b1-4)GlcNAc(b1-4)[Fuc(a1-6)]GlcNAc
# Outline: as §1
# [8] = biological target: Gal(b1-4)GlcNAc(b1-3)Gal(b1-4)GlcNAc(b1-3)Gal(b1-4)GlcNAc(b1-3)Gal(b1-4)GlcNAc(b1-2)Man(a1-3)[Gal(b1-4)GlcNAc(b1-3)Gal(b1-4)GlcNAc(b1-3)Gal(b1-4)GlcNAc(b1-3)Gal(b1-4)GlcNAc(b1-2)Man(a1-6)]Man(b1-4)GlcNAc(b1-4)GlcNAc
# Outline: as §1
# [9] = biological target: Gal(b1-4)GlcNAc(b1-3)Gal(b1-4)GlcNAc(b1-3)Gal(b1-4)GlcNAc(b1-3)Gal(b1-4)GlcNAc(b1-2)Man(a1-3)[Gal(b1-4)GlcNAc(b1-3)Gal(b1-4)GlcNAc(b1-3)Gal(b1-4)GlcNAc(b1-3)Gal(b1-4)GlcNAc(b1-2)Man(a1-6)]Man(b1-4)GlcNAc(b1-4)[Fuc(a1-6)]GlcNAc
# Outline: as §1
# [10] = biological target: Gal(b1-4)GlcNAc(b1-3)Gal(b1-4)GlcNAc(b1-3)Gal(b1-4)GlcNAc(b1-3)Gal(b1-4)GlcNAc(b1-2)[Gal(b1-4)GlcNAc(b1-3)Gal(b1-4)GlcNAc(b1-3)Gal(b1-4)GlcNAc(b1-3)Gal(b1-4)GlcNAc(b1-6)]Man(a1-6)[Gal(b1-4)GlcNAc(b1-3)Gal(b1-4)GlcNAc(b1-3)Gal(b1-4)GlcNAc(b1-3)Gal(b1-4)GlcNAc(b1-2)Man(a1-3)]Man(b1-4)GlcNAc(b1-4)[Fuc(a1-6)]GlcNAc
# Outline: as §1
# [11] = biological target: Gal(b1-4)GlcNAc(b1-3)Gal(b1-4)GlcNAc(b1-3)Gal(b1-4)GlcNAc(b1-3)Gal(b1-4)GlcNAc(b1-3)Gal(b1-4)GlcNAc(b1-2)Man(a1-3)[Gal(b1-4)GlcNAc(b1-3)Gal(b1-4)GlcNAc(b1-3)Gal(b1-4)GlcNAc(b1-3)Gal(b1-4)GlcNAc(b1-3)Gal(b1-4)GlcNAc(b1-2)Man(a1-6)]Man(b1-4)GlcNAc(b1-4)GlcNAc
# Outline: as §1
# [12] = biological target: Gal(b1-4)GlcNAc(b1-3)Gal(b1-4)GlcNAc(b1-3)Gal(b1-4)GlcNAc(b1-3)Gal(b1-4)GlcNAc(b1-3)Gal(b1-4)GlcNAc(b1-2)Man(a1-3)[Gal(b1-4)GlcNAc(b1-3)Gal(b1-4)GlcNAc(b1-3)Gal(b1-4)GlcNAc(b1-3)Gal(b1-4)GlcNAc(b1-3)Gal(b1-4)GlcNAc(b1-2)Man(a1-6)]Man(b1-4)GlcNAc(b1-4)[Fuc(a1-6)]GlcNAc
# Outline: as §1
# [13] = biological target: Gal(b1-4)GlcNAc(b1-3)Gal(b1-4)GlcNAc(b1-3)Gal(b1-4)GlcNAc(b1-3)Gal(b1-4)GlcNAc(b1-3)Gal(b1-4)GlcNAc(b1-2)[Gal(b1-4)GlcNAc(b1-3)Gal(b1-4)GlcNAc(b1-3)Gal(b1-4)GlcNAc(b1-3)Gal(b1-4)GlcNAc(b1-3)Gal(b1-4)GlcNAc(b1-6)]Man(a1-6)[Gal(b1-4)GlcNAc(b1-3)Gal(b1-4)GlcNAc(b1-3)Gal(b1-4)GlcNAc(b1-3)Gal(b1-4)GlcNAc(b1-3)Gal(b1-4)GlcNAc(b1-2)Man(a1-3)]Man(b1-4)GlcNAc(b1-4)[Fuc(a1-6)]GlcNAc
# Outline: as §1
# [14] = biological target: Gal(b1-4)GlcNAc(b1-3)Gal(b1-4)GlcNAc(b1-3)Gal(b1-4)GlcNAc(b1-3)Gal(b1-4)GlcNAc(b1-3)Gal(b1-4)GlcNAc(b1-3)Gal(b1-4)GlcNAc(b1-2)Man(a1-3)[Gal(b1-4)GlcNAc(b1-3)Gal(b1-4)GlcNAc(b1-3)Gal(b1-4)GlcNAc(b1-3)Gal(b1-4)GlcNAc(b1-3)Gal(b1-4)GlcNAc(b1-3)Gal(b1-4)GlcNAc(b1-2)Man(a1-6)]Man(b1-4)GlcNAc(b1-4)GlcNAc
# Outline: as §1
# [15] = biological target: Gal(b1-4)GlcNAc(b1-3)Gal(b1-4)GlcNAc(b1-3)GalNAc
# Outline: as §1
# [16] = biological target: Gal(b1-4)GlcNAc(b1-3)Gal(b1-4)GlcNAc(b1-3)[Gal(b1-4)GlcNAc(b1-3)Gal(b1-4)GlcNAc(b1-6)]GalNAc
# Outline: as §1
# [17] = biological target: Gal(b1-4)GlcNAc(b1-3)Gal(b1-4)GlcNAc(b1-6)[Gal(b1-3)]GalNAc
# Outline: as §1
# [18] = biological target: Gal(b1-4)GlcNAc(b1-3)Gal(b1-4)[Fuc(a1-3)]GlcNAc(b1-3)Gal(b1-4)[Fuc(a1-3)]GlcNAc
# Outline: as §1
# [19] = biological target: Gal(b1-4)GlcNAc(b1-3)GalNAc
# Outline: as §1
# [20] = biological target: Gal(b1-4)GlcNAc(b1-3)[Fuc(a1-3)GlcNAc(b1-6)]Gal(b1-4)Glc
# Outline: as §1
# [21] = biological target: Gal(b1-4)GlcNAc(b1-3)[Gal(b1-4)GlcNAc(b1-6)]Gal(b1-4)GlcNAc
# Outline: as §1
# [22] = biological target: Gal(b1-4)GlcNAc(b1-3)[GlcNAc(b1-6)]Gal(b1-4)GlcNAc
# Outline: as §1
# [23] = biological target: Gal(b1-4)GlcNAc(b1-6)Gal(b1-4)GlcNAc
# Outline: as §1
# [24] = biological target: Gal(b1-4)GlcNAc(b1-6)GalNAc
# Outline: as §1
# [25] = biological target: Gal(b1-4)GlcNAc(b1-6)[Gal(b1-3)]GalNAc
# Outline: as §1
# [26] = biological target: Gal(b1-4)GlcNAc(b1-6)[Gal(b1-4)GlcNAc(b1-3)]GalNAc
# Outline: as §1
# Gal(b1-4)GlcNAc6P = biological target: Gal(b1-4)GlcNAc6P
# Outline: as §1
# Gal(b1-6)Gal = biological target: Gal(b1-6)Gal
# Outline: as §1
# Gal3S(b1-3)GalNAc = biological target: Gal3S(b1-3)GalNAc
# Outline: as §1
# Gal3S(b1-3)GlcNAc = biological target: Gal3S(b1-3)GlcNAc
# Outline: as §1
binder,measurement,setting,value
"Epa1-NP-mutant-E227A (Candida glabrata), Q6VBJ0 (protein) MILNPALFLNKCVCIYTTLILLLLTNGGYATSSNDISLASKDPTTFPLGCSPDITTPKKGLSMELYSYDFRKKGSYPCWDAAYLDPNYPRTGYKSHRLLAKVDGVTGNINFYYHATKGCTPQLGHLPASYNYPKPLTMTNFTMLLYGYFRPKVTGFHTFTISADDLLFVNFGAGNAFDCCRRDSSADHFGNYQAYAIWGSKTAKDELTVHLDAGVYYPIRLFYNNRAYDGALSFTFKTESNENTVSDFSEYFFSLDDTEEGCPGLISYDSSCASVKTSKIIGIDYHTETPNENLVPITKTIYHLGIPCTGTTTTPLCGSGFYDPLANKCVTINTSSTSSVTKTTSHTTSKEVSFHSSISSQKTLIPKSIPSPYGPIKSQSIPTEMETSSEISSSEYAFSDVISTPSHSPYTKKHSSLNSSSYTSTVIHSLTSYSISQGIFSTSLSEQNITSKSSTDKFSTATSMSNNITQSSIIISQFSTNNENYTTTSMHTSSDKISTETLNNSISTTTSILFSNSSTILKNNTTIISSDKDTHYHPVNPTIVCSTNKTEIICASITQPSISNSNNHWSSSVLKFNSTTVRSTLPSSAGSNETSINVPFSSSTESNTSTSSTSTSNSKMVRSTLPSSAGSNETSISVPFSSSTESNTSTSSTSTSNSKMVRSTLPSSAGSNETSINVPFSSSTESNTSTSSTSTSNSKTVRSTPFSSAGIIMTSLSQRNNKSASSYASSNSKCYNTADSCRKVHSTPSYLLTSSYTSEGVDYDCSLVSTKLKINDTNCVNNKHTTKSCLKTSVTTTIPTLEIKTARKSSSNTIGLHSYPTSSPNKSISSAPIIGYISSFKTIKTASPSYQTSDLTTITTITSLNNPGSTAVENTHESNDKSRKTSSNDISSKHSVIKETKDAVESSNKSHQTNTLKCSSIIIASSSHNSYESLGGTTLTLTLSKVYSPQNNDTLPFLEISEVNPSRTVLPESSKMMQYLTSTEERNKTARNTIATNIVSISTFHFEGEGNAIRMGYTQLLLMLIGIIVMNIGT",glycan array binding signal (z-score),[1],0.401
same,glycan array binding signal (z-score),[2],0.503
same,glycan array binding signal (z-score),[3],0.946
same,glycan array binding signal (z-score),[4],-0.129
same,glycan array binding signal (z-score),[5],0.626
same,glycan array binding signal (z-score),[6],1.09
same,glycan array binding signal (z-score),[7],1.15
same,glycan array binding signal (z-score),[8],0.273
same,glycan array binding signal (z-score),[9],0.133
same,glycan array binding signal (z-score),[10],0.612
same,glycan array binding signal (z-score),[11],0.394
same,glycan array binding signal (z-score),[12],0.34
same,glycan array binding signal (z-score),[13],0.802
same,glycan array binding signal (z-score),[14],0.127
same,glycan array binding signal (z-score),[15],-0.164
same,glycan array binding signal (z-score),[16],0.017
same,glycan array binding signal (z-score),[17],0.755
same,glycan array binding signal (z-score),[18],-0.199
same,glycan array binding signal (z-score),[19],-0.169
same,glycan array binding signal (z-score),[20],-0.198
same,glycan array binding signal (z-score),[21],0.242
same,glycan array binding signal (z-score),[22],0.188
same,glycan array binding signal (z-score),[23],0.869
same,glycan array binding signal (z-score),[24],0.099
same,glycan array binding signal (z-score),[25],1.27
same,glycan array binding signal (z-score),[26],0.261
same,glycan array binding signal (z-score),Gal(b1-4)GlcNAc6P,-0.19
same,glycan array binding signal (z-score),Gal(b1-6)Gal,-0.133
same,glycan array binding signal (z-score),Gal3S(b1-3)GalNAc,-0.18
same,glycan array binding signal (z-score),Gal3S(b1-3)GlcNAc,-0.208
